{
  "source": "the supplement of paper PMC8728848",
  "test_in_all_cases": "glycan array binding signal (z-score within array); higher = stronger binding",
  "details_in_all_cases": "glycan notation: IUPAC condensed, linker removed",
  "key": {"[1]": {"target": "Fuc(a1-3)[Gal(b1-4)]GlcNAc(b1-2)Man", "outline": "(§1)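 The binding signal is a Z-score computed within each array. Data were drawn from 3228 arrays in the Consortium for Functional Glycomics database, restricted to those with a known protein sequence. Scores were averaged over arrays of the same protein sequence at different concentrations or buffers, and over linkers, and negative values can be taken as non-binding.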"}, "[2]": {"target": "Fuc(a1-3)[Gal(b1-4)]GlcNAc(b1-2)Man(a1-3)[Fuc(a1-3)[Gal(b1-4)]GlcNAc(b1-2)Man(a1-6)]Man(b1-4)GlcNAc(b1-4)GlcNAc", "outline": "as §1"}, "[3]": {"target": "Fuc(a1-3)[Gal(b1-4)]GlcNAc(b1-2)Man(a1-3)[Fuc(a1-3)[Gal(b1-4)]GlcNAc(b1-2)Man(a1-6)]Man(b1-4)GlcNAc(b1-4)[Fuc(a1-6)]GlcNAc", "outline": "as §1"}, "[4]": {"target": "Fuc(a1-3)[Gal(b1-4)]GlcNAc(b1-3)Gal(b1-3)[Fuc(a1-4)]GlcNAc", "outline": "as §1"}, "[5]": {"target": "Fuc(a1-3)[Gal(b1-4)]GlcNAc(b1-3)Gal(b1-4)Glc", "outline": "as §1"}, "[6]": {"target": "Fuc(a1-3)[Gal(b1-4)]GlcNAc(b1-3)Gal(b1-4)[Fuc(a1-3)]Glc", "outline": "as §1"}, "[7]": {"target": "Fuc(a1-3)[Gal(b1-4)]GlcNAc(b1-3)Gal(b1-4)[Fuc(a1-3)]GlcNAc", "outline": "as §1"}, "[8]": {"target": "Fuc(a1-3)[Gal(b1-4)]GlcNAc(b1-3)Gal(b1-4)[Fuc(a1-3)]GlcNAc(b1-3)Gal(b1-4)[Fuc(a1-3)]GlcNAc", "outline": "as §1"}, "[9]": {"target": "Fuc(a1-3)[Gal(b1-4)]GlcNAc(b1-3)GalNAc", "outline": "as §1"}, "[10]": {"target": "Fuc(a1-3)[Gal(b1-4)]GlcNAc(b1-3)[Fuc(a1-2)]Gal(b1-4)Glc", "outline": "as §1"}, "[11]": {"target": "Fuc(a1-3)[Gal(b1-4)]GlcNAc(b1-3)[Fuc(a1-3)[Gal(b1-4)]GlcNAc(b1-6)]Gal(b1-4)Glc", "outline": "as §1"}, "[12]": {"target": "Fuc(a1-3)[Gal(b1-4)]GlcNAc(b1-4)Gal(b1-4)[Fuc(a1-3)]GlcNAc", "outline": "as §1"}, "[13]": {"target": "Fuc(a1-3)[Gal(b1-4)]GlcNAc(b1-4)Gal(b1-4)[Fuc(a1-3)]GlcNAc(b1-4)Gal(b1-4)[Fuc(a1-3)]GlcNAc", "outline": "as §1"}, "[14]": {"target": "Fuc(a1-3)[Gal(b1-4)]GlcNAc(b1-6)GalNAc", "outline": "as §1"}, "[15]": {"target": "Fuc(a1-3)[Gal(b1-4)]GlcNAc(b1-6)[Gal(b1-3)GlcNAc(b1-3)]Gal(b1-4)Glc", "outline": "as §1"}, "[16]": {"target": "Fuc(a1-3)[Gal(b1-4)]GlcNAc6S", "outline": "as §1"}, "[17]": {"target": "Fuc(a1-3)[Gal3S(b1-4)]Glc", "outline": "as §1"}, "[18]": {"target": "Fuc(a1-3)[Gal3S(b1-4)]GlcNAc", "outline": "as §1"}, "[19]": {"target": "Fuc(a1-3)[Gal3S(b1-4)]GlcNAc(b1-3)Gal", "outline": "as §1"}, "[20]": {"target": "Fuc(a1-3)[Gal3S(b1-4)]GlcNAc6S", "outline": "as §1"}, "[21]": {"target": "Fuc(a1-3)[Gal3S(b1-4)]GlcNAc6S(b1-3)Gal(b1-4)Glc", "outline": "as §1"}, "[22]": {"target": "Fuc(a1-3)[Gal6S(b1-4)]GlcNAc(b1-3)Gal(b1-4)Glc", "outline": "as §1"}, "[23]": {"target": "Fuc(a1-3)[GalNAc(b1-4)]GlcNAc", "outline": "as §1"}, "[24]": {"target": "Fuc(a1-3)[GalNAc(b1-4)]GlcNAc6S", "outline": "as §1"}, "[25]": {"target": "Fuc(a1-4)GlcNAc", "outline": "as §1"}, "[26]": {"target": "Fuc(a1-6)GlcNAc", "outline": "as §1"}, "[27]": {"target": "Fuc(b1-3)GlcNAc", "outline": "as §1"}, "[28]": {"target": "Gal(a1-2)Gal", "outline": "as §1"}, "[29]": {"target": "Gal(a1-3)Gal", "outline": "as §1"}, "[30]": {"target": "Gal(a1-3)Gal(b1-3)GlcNAc", "outline": "as §1"}, "[31]": {"target": "Gal(a1-3)Gal(b1-3)GlcNAc(b1-2)Man", "outline": "as §1"}, "[32]": {"target": "Gal(a1-3)Gal(b1-3)GlcNAc(b1-2)Man(a1-3)[Gal(a1-3)Gal(b1-3)GlcNAc(b1-2)Man(a1-6)]Man(b1-4)GlcNAc(b1-4)GlcNAc", "outline": "as §1"}, "[33]": {"target": "Gal(a1-3)Gal(b1-3)GlcNAc(b1-3)GalNAc", "outline": "as §1"}, "[34]": {"target": "Gal(a1-3)Gal(b1-3)GlcNAc(b1-6)GalNAc", "outline": "as §1"}, "[35]": {"target": "Gal(a1-3)Gal(b1-3)[Fuc(a1-4)]GlcNAc(b1-2)Man(a1-3)[Gal(a1-3)Gal(b1-3)[Fuc(a1-4)]GlcNAc(b1-2)Man(a1-6)]Man(b1-4)GlcNAc(b1-4)GlcNAc", "outline": "as §1"}, "[36]": {"target": "Gal(a1-3)Gal(b1-4)Glc", "outline": "as §1"}, "[37]": {"target": "Gal(a1-3)Gal(b1-4)GlcNAc", "outline": "as §1"}, "[38]": {"target": "Gal(a1-3)Gal(b1-4)GlcNAc(b1-2)Man", "outline": "as §1"}, "[39]": {"target": "Gal(a1-3)Gal(b1-4)GlcNAc(b1-2)Man(a1-3)[Gal(a1-3)Gal(b1-4)GlcNAc(b1-2)Man(a1-6)]Man(b1-4)GlcNAc(b1-4)GlcNAc", "outline": "as §1"}, "[40]": {"target": "Gal(a1-3)Gal(b1-4)GlcNAc(b1-3)GalNAc", "outline": "as §1"}, "[41]": {"target": "Gal(a1-3)Gal(b1-4)GlcNAc(b1-6)GalNAc", "outline": "as §1"}, "[42]": {"target": "Gal(a1-3)Gal(b1-4)[Fuc(a1-3)]GlcNAc", "outline": "as §1"}, "[43]": {"target": "Gal(a1-3)Gal(b1-4)[Fuc(a1-3)]GlcNAc(b1-2)Man(a1-3)[Gal(a1-3)Gal(b1-4)[Fuc(a1-3)]GlcNAc(b1-2)Man(a1-6)]Man(b1-4)GlcNAc(b1-4)GlcNAc", "outline": "as §1"}, "[44]": {"target": "Gal(a1-3)GalNAc", "outline": "as §1"}, "[45]": {"target": "Gal(a1-3)[Gal(a1-4)]Gal(b1-4)GlcNAc", "outline": "as §1"}},
  "note": "The other results are listed elsewhere or left out.",
  "data": [
    {"binder": "CLEC5A (Homo sapiens), Q9NY25 (protein) MNWHMIISGLIVVVLKVVGMTLFLLYFPQIFNKSNDGFTTTRSYGTVSQIFGSSSPSPNGFITTRSYGTVCPKDWEFYQARCFFLSTSESSWNESRDFCKGKGSTLAIVNTPEKLKFLQDITDAEKYFIGLIYHREEKRWRWINNSVFNGNVTNQNQNFNCATIGLTKTFDAASCDISYRRICEKNAK", "values": [
      {"measurement": "glycan array binding signal (z-score)", "setting": "[1]", "result": -0.15},
      {"measurement": "glycan array binding signal (z-score)", "setting": "[2]", "result": -0.446},
      {"measurement": "glycan array binding signal (z-score)", "setting": "[3]", "result": -0.058},
      {"measurement": "glycan array binding signal (z-score)", "setting": "[4]", "result": -0.411},
      {"measurement": "glycan array binding signal (z-score)", "setting": "[5]", "result": -0.031},
      {"measurement": "glycan array binding signal (z-score)", "setting": "[6]", "result": -0.32},
      {"measurement": "glycan array binding signal (z-score)", "setting": "[7]", "result": 0.024},
      {"measurement": "glycan array binding signal (z-score)", "setting": "[8]", "result": -0.241},
      {"measurement": "glycan array binding signal (z-score)", "setting": "[9]", "result": 0.155},
      {"measurement": "glycan array binding signal (z-score)", "setting": "[10]", "result": -0.32},
      {"measurement": "glycan array binding signal (z-score)", "setting": "[11]", "result": -0.32},
      {"measurement": "glycan array binding signal (z-score)", "setting": "[12]", "result": 0.685},
      {"measurement": "glycan array binding signal (z-score)", "setting": "[13]", "result": -0.282},
      {"measurement": "glycan array binding signal (z-score)", "setting": "[14]", "result": 0.142},
      {"measurement": "glycan array binding signal (z-score)", "setting": "[15]", "result": -0.158},
      {"measurement": "glycan array binding signal (z-score)", "setting": "[16]", "result": 1.18},
      {"measurement": "glycan array binding signal (z-score)", "setting": "[17]", "result": -0.243},
      {"measurement": "glycan array binding signal (z-score)", "setting": "[18]", "result": -0.166},
      {"measurement": "glycan array binding signal (z-score)", "setting": "[19]", "result": -0.32},
      {"measurement": "glycan array binding signal (z-score)", "setting": "[20]", "result": -0.068},
      {"measurement": "glycan array binding signal (z-score)", "setting": "[21]", "result": 0.162},
      {"measurement": "glycan array binding signal (z-score)", "setting": "[22]", "result": -0.127},
      {"measurement": "glycan array binding signal (z-score)", "setting": "[23]", "result": -0.093},
      {"measurement": "glycan array binding signal (z-score)", "setting": "[24]", "result": -0.137},
      {"measurement": "glycan array binding signal (z-score)", "setting": "[25]", "result": 11.1},
      {"measurement": "glycan array binding signal (z-score)", "setting": "[26]", "result": 0.933},
      {"measurement": "glycan array binding signal (z-score)", "setting": "[27]", "result": -0.337},
      {"measurement": "glycan array binding signal (z-score)", "setting": "[28]", "result": 0.202},
      {"measurement": "glycan array binding signal (z-score)", "setting": "[29]", "result": 0.778},
      {"measurement": "glycan array binding signal (z-score)", "setting": "[30]", "result": -0.035},
      {"measurement": "glycan array binding signal (z-score)", "setting": "[31]", "result": -0.145},
      {"measurement": "glycan array binding signal (z-score)", "setting": "[32]", "result": 0.889},
      {"measurement": "glycan array binding signal (z-score)", "setting": "[33]", "result": 0.061},
      {"measurement": "glycan array binding signal (z-score)", "setting": "[34]", "result": 0.047},
      {"measurement": "glycan array binding signal (z-score)", "setting": "[35]", "result": -0.152},
      {"measurement": "glycan array binding signal (z-score)", "setting": "[36]", "result": -0.108},
      {"measurement": "glycan array binding signal (z-score)", "setting": "[37]", "result": -0.039},
      {"measurement": "glycan array binding signal (z-score)", "setting": "[38]", "result": -0.219},
      {"measurement": "glycan array binding signal (z-score)", "setting": "[39]", "result": 0.478},
      {"measurement": "glycan array binding signal (z-score)", "setting": "[40]", "result": 0.073},
      {"measurement": "glycan array binding signal (z-score)", "setting": "[41]", "result": -0.038},
      {"measurement": "glycan array binding signal (z-score)", "setting": "[42]", "result": -0.102},
      {"measurement": "glycan array binding signal (z-score)", "setting": "[43]", "result": -0.057},
      {"measurement": "glycan array binding signal (z-score)", "setting": "[44]", "result": -0.38},
      {"measurement": "glycan array binding signal (z-score)", "setting": "[45]", "result": 0.669}
    ]}
  ]
}
